Measurements: PubChem BioAssay AID504332 (National Center for Advancing Translational Sciences (NCATS), 2011)
In all, about 350,000 compounds went through this assay and about 31,000 (8.9%) were called active. The shares of active, inactive and inconclusive entries below differ from those in the screen. Calls follow the shape of the dose curve; as a rule, active = well fitted inhibition curve with a large enough effect; inconclusive = small, poorly fitted or top-dose-only effect; inactive = no such curve, though single readings can be large or run the other way. Where the call is inconclusive, the potency comes from a doubtful curve fit.

molecular target: Histone-lysine N-methyltransferase EHMT2 (Homo sapiens) (UniProt Q96KQ7); assay: qHTS Assay for Inhibitors of Histone Lysine Methyltransferase G9a; settings: G9a H3K9 monomethylation, AlphaScreen, 2 h; activity, negative = inhibition: at 59 µM (top of the series) unless noted; also: nearly all actives have a fitted effect of over 75% in size
Sequence of UniProt Q96KQ7 (Q96KQ7 whole entry, looked up): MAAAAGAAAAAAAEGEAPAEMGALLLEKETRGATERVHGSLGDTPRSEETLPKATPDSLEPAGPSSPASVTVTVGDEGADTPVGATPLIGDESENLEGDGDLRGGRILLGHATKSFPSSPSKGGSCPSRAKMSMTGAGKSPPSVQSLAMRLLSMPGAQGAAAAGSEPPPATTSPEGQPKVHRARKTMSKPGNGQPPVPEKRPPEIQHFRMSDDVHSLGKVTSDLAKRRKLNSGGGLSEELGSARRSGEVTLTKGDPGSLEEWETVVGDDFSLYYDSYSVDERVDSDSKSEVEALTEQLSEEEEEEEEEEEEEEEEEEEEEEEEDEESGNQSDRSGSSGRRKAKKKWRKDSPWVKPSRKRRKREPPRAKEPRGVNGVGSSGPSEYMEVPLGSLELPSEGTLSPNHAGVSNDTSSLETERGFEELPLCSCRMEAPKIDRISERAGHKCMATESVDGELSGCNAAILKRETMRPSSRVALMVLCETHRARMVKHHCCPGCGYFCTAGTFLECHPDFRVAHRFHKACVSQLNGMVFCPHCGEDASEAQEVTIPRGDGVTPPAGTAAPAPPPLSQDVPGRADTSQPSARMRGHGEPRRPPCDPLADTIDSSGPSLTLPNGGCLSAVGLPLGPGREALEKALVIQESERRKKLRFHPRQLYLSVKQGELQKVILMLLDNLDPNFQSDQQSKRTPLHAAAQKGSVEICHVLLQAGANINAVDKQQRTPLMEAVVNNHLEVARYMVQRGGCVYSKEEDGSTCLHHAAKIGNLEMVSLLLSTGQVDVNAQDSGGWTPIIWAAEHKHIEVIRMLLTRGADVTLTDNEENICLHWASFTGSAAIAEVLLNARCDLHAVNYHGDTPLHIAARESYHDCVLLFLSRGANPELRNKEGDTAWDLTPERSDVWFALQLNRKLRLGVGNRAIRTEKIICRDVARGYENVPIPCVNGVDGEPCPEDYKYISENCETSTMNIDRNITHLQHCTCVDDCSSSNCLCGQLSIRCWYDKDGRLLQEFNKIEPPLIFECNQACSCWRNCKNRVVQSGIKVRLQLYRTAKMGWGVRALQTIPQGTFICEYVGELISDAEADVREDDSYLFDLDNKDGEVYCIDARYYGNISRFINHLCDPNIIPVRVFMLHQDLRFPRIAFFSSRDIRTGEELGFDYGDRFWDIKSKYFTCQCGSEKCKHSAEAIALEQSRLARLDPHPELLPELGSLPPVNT
Summary of the method: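 Readings reflect AlphaScreen signal from monomethyl-H3K9 antibody detection. HMT at 20 nM; substrate b-H3K9 500 nM; cofactor SAM 20 uM; 2 h RT reaction; compounds tested as titrations in qHTS with 15 min preincubation.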
% is scaled to controls: 0 for no effect and ±100 for the full control effect; potency is read from the fitted curve at half-maximal effect; tags tell the direction and shape of the fitted curve.

SMILES | Potency | activity, negative = inhibition
CC(=O)c1ccc(N2C(=O)C3C(C2=O)C(C(=O)c2ccc(Cl)cc2)N2CCCC32)cc1 (stereo not given) | inconclusive: 2 µM [inhibitor, partial curve, poor fit] | –
CCCn1nnnc1SCC(=O)Nc1sc(C)c(C)c1C#N | – | inactive: 47.5% [at 12.7 µM]
CCC(C)(C)N(C(=O)CCC(=O)Nc1cc(C)on1)C(C(=O)NC(C)(C)C)c1ccc(OC)cc1 (stereo not given) | – | inactive: 16.7% [at 102 µM]
CS(=O)(=O)N1CCN(c2ccc(NC(=O)c3cc4ccccc4o3)cc2)CC1 | inconclusive: 56.2 µM [inhibitor, partial curve] | –
N#CCN(C(=O)COC(=O)C1CC2CCCC(C1)C2=O)c1ccccc1 (stereo not given) | inconclusive: 89.1 µM [inhibitor, single point] | –
COc1ccc(Nc2cc(Cl)ccc2C(=O)O)cn1 | active: 2.24 µM | –
Cc1sc(-n2c(C)ccc2C)c(C#N)c1C | active: 7.94 µM | –
O=C(/C=C/c1cccc(Cl)c1)NCCc1ccccc1 | – | inactive: 52.9%
Cc1cccc(OCC(=O)Nc2nnc(S(=O)(=O)N3CCc4ccccc43)s2)c1 | inconclusive: 3.98 µM [inhibitor, partial curve, poor fit] | –
CCc1c(O)nc(SCC(=O)Nc2ccc(C)cc2)n(C2CCCCC2)c1=O | inconclusive: 31.6 µM [inhibitor, single point] | –
CC(=O)N1CCC(=NNc2ccc(S(=O)(=O)N3CCOCC3)cc2[N+](=O)[O-])CC1 | inconclusive: 28.2 µM [inhibitor, partial curve, poor fit] | –
CCN(CC)CCCNc1cc(C(F)(F)F)c(C#N)c2nc3ccccc3n12 | inconclusive: 89.1 µM [inhibitor, single point] | –
CCc1ccccc1Nc1nc(N)nc(COC(=O)c2cccn2C)n1 | inconclusive: 70.8 µM [inhibitor, partial curve, poor fit] | –
COc1ccccc1-c1sc2cc3c(cc2c1C#CC1(O)CCCCC1)OCO3 | – | inactive: 3.94% [at 0.501 µM]
COc1ccc(NS(=O)(=O)c2ccc(C)c(C(=O)N(C)Cc3ccc(OC)cc3OC)c2)cc1 | inconclusive: 79.4 µM [inhibitor, partial curve, poor fit] | –
Cc1cc(C(=O)NCc2ccccc2Cl)n(-c2ccccc2)n1 | – | inactive: 9.7% [at 102 µM]
COCCN(C(=O)CSc1nnc(-c2cccc(F)c2)n1N)c1c(N)n(CC(C)C)c(=O)[nH]c1=O | – | inactive: -15.8% [at 102 µM]
Cn1ccsc1=NC(=O)c1cccc(OC(F)F)c1 | – | inactive: 9.82% [at 102 µM]
O=C(CSCc1ccc(F)cc1)N1CCc2c([nH]c3ccccc23)C1c1ccc(Cl)cc1 (stereo not given) | – | inactive: -28.7%
Cc1ccc2nc(C)cc(OCC(=O)O)c2c1 | inconclusive: 79.4 µM [inhibitor, single point] | –
